The RNAGym collection of RNA variant scans (doi:10.7554/elife.90254)
Read counts are not given, so values of variants with three or more changes are uncertain.

B1: OR4K15 (parent)
chain: GUUAACGGUCAUAGGCCAUGGAAACUAGGAGCACCAUUUCGCUGCCAGUGAAGAAAUGAACAAAGAAAAUCUGGGCCAGGCAGGCAUCAAAAGAAAUAGUCUUGCGCUCAACCAGAAAGUCUGUAAUCAUUUUAAGGGUA

Variants of: B1
Test: self-cleavage, relative activity (ratio to wild type); higher = more cleavage; in vitro, sequencing; the parent is a self-cleaving ribozyme

Variant | self-cleavage
GUUAACGGUCAUAGGCCAUGGAAACUAGGAGCACCAUUUCGCUGCCAGUGAAGAAAUGAACAAAGAGAAUCUGUGCCAGGCAGGCAUCAAAAGAAAUAGUCUUGCGCUCAGCCAGAAAGUCUGUAAUCAUUUUAAGGGUA [A67G G74U A111G] | 0.02
GUUAACGGUCAUAGGCCAUGGAAACUAGGAGCACCAUUUCGCUGCCAGUGAAGAAAUGAACAAAGAGAACCUGGGCCAGGCAGGCAUCAAAAGAAAUAGUCUUGCGCUCAACCAGAAAGUCUGUAAUCAUUUUAACGGUA [A67G U70C G136C] | 0.83
GUUAACGGUCAUAGGCCAUGGAAACUAGGAGCACCAUUUCGCUGCCAGUGAAGAAAUGAACAAAGAGAAUCAGGGCCAGGCAGGCAUCAGAAGAAGUGGUCUUGCGCUCAACCAGAAAGUCUGUAAUCAUUUUAAGGGUA [A67G U72A A90G A96G A98G] | 0.1
GUUAACGGUCAUAGGCCAUGGAAACUAGGAGCACCAUUUCGCUGCCAGUGAAGAAAUGAACAAAGAGAAUCCGGGCCAGGCAGGCAUCAAAAGAGGUAGUCUUGCGCUCAACCAGAAAGCCUGUAAUCAUUUUAAGGGUA [A67G U72C A95G A96G U120C] | 0.11
GUUAACGGUCAUAGGCCAUGGAAACUAGGAGCACCAUUUCGCUGCCAGUGAAGAAAUGAACAAAGAGAAUCCGGGCCAGGCAGGCAUCAAAAGAAAACGUCUUGCGCUCAACCAGAAAGUCUGUAGUCAUUUUAAGGGUA [A67G U72C U97A A98C A126G] | 0.1
GUUAACGGUCAUAGGCCAUGGAAACUAGGAGCACCAUUUCGCUGCCAGUGAAGAAAUGAACAAAGAGAAUCUGGGCCAGGCAGGCACCAAAAGAAAUAGUCUUGCGCUCAACCAGAAAGCCUGUAAUCAUUUUAAGGGUA [A67G U87C U120C] | 0.73
GUUAACGGUCAUAGGCCAUGGAAACUAGGAGCACCAUUUCGCUGCCAGUGAAGAAAUGAACAAAGAGAAUCUGGGCCAGGCAGGCACCAAAAGAAAUAGUCUUGCGCUCAACCAGAAAGUCCGUAAUCGCUUUAAGGGUA [A67G U87C U122C A129G U130C] | 0.46
GUUAACGGUCAUAGGCCAUGGAAACUAGGAGCACCAUUUCGCUGCCAGUGAAGAAAUGAACAAAGAGAAUCUGGGCCAGGCAGGCAGCAAAAGAAAUAGUCUUGCGCUCAACCAGAAAGUCUGUAAUCAUUUUAAGGGUG [A67G U87G A140G] | 0.73
GUUAACGGUCAUAGGCCAUGGAAACUAGGAGCACCAUUUCGCUGCCAGUGAAGAAAUGAACAAAGAGAAUCUGGGCCAGGCAGGCAUCAAAAGAAAUAGUCUUGCGCUCAACCAGAAAGCCUGUAAUCAUCUUAAGGGUA [A67G U120C U131C] | 1.05
GUUAACGGUCAUAGGCCAUGGAAACUAGGAGCACCAUUUCGCUGCCAGUGAAGAAAUGAACAAAGAGAAUCUGGGCCAGGCAGGCAUCAAAAGAAAUAGUCUUGCGCUCAACCAGAAAGGCUGUGAUCAUUUUAAGGGUA [A67G U120G A125G] | 1.31
GUUAACGGUCAUAGGCCAUGGAAACUAGGAGCACCAUUUCGCUGCCAGUGAAGAAAUGAACAAAGAUGAUCUGGGCCAGGCAGGCAUCAAAAGAAACAGUCUUGCGCUCGACCAGAAAGUCUGUAAUCAUUUUAAGGGUA [A67U A68G U97C A110G] | 0.2
GUUAACGGUCAUAGGCCAUGGAAACUAGGAGCACCAUUUCGCUGCCAGUGAAGAAAUGAACAAAGAUAAUCUGGGCCGGGCAGGCAUUAAAAGAAAUAGUCUUGCGCUCAACCAGAAAGUCUGUAAUCAUUUUAAGGGUA [A67U A78G C88U] | 0.1
GUUAACGGUCAUAGGCCAUGGAAACUAGGAGCACCAUUUCGCUGCCAGUGAAGAAAUGAACAAAGAUAAUCUGGGCCUGGCAGGCAUCAGGAGAAAUAGUCUUGCGCUCAACCAGAAAGUCUGUAAUCAUUUUAAGGGUA [A67U A78U A90G A91G] | 0.23
GUUAACGGUCAUAGGCCAUGGAAACUAGGAGCACCAUUUCGCUGCCAGUGAAGAAAUGAACAAAGAUAAUCUGGGCCAGGCAGGCGUCAAAAGAAAUAGACUUGCGCUCAACCAGAAAGUCUGUAAUCGUUUUAAGGGUA [A67U A86G U100A A129G] | 0.53
GUUAACGGUCAUAGGCCAUGGAAACUAGGAGCACCAUUUCGCUGCCAGUGAAGAAAUGAACAAAGAUAAUCUGGGCCAGGCAGGCAUCACAAGAAAUAGUCUCGCGCUCAACCAGAAAGACUGUAAUCAUGUUAAGGGUA [A67U A90C U103C U120A U131G] | 0.47
GUUAACGGUCAUAGGCCAUGGAAACUAGGAGCACCAUUUCGCUGCCAGUGAAGAAAUGAACAAAGAUAAUCUGGGCCAGGCAGGCAUCAAGAGAAAUAGUCUUGCGCUCAACCAGAAAGUCUGUAAUCAUUUUGAGGGUA [A67U A91G A134G] | 1.23
GUUAACGGUCAUAGGCCAUGGAAACUAGGAGCACCAUUUCGCUGCCAGUGAAGAAAUGAACAAAGAACGUCUGGGCCAGGCAGGCAUCAAAAGAAAUAGUCUUGCGCUCAACCAGAAAGUCUGUAAUCAUUUUAGGGGUA [A68C A69G A135G] | 0.75
GUUAACGGUCAUAGGCCAUGGAAACUAGGAGCACCAUUUCGCUGCCAGUGAAGAAAUGAACAAAGAACUUCUGGGCCAGGCCGGCAUCAAAAGAAAUAGUCUUGCGCCCAACCAGAAAGUCUGUAAUCAUUUUAAGGGUA [A68C A69U A82C U108C] | 0.03
GUUAACGGUCAUAGGCCAUGGAAACUAGGAGCACCAUUUCGCUGCCAGUGAAGAAAUGAACAAAGAACAUCUGGGCCAGGCGGGCGUCAAAAGAAAUAGUCUUGCGCUCAACCAGAAAGUCUGUAAUCAUUUUAAGGGUA [A68C A82G A86G] | 0.16
GUUAACGGUCAUAGGCCAUGGAAACUAGGAGCACCAUUUCGCUGCCAGUGAAGAAAUGAACAAAGAAGGUCUGGGCCAGGCAGGCAUCAAGAGAAAUAGUCUUGCGCUCAACCAGAAAGUCUGUAAUCAUUUUAAGGGUA [A68G A69G A91G] | 0.52
GUUAACGGUCAUAGGCCAUGGAAACUAGGAGCACCAUUUCGCUGCCAGUGAAGAAAUGAACAAAGAAGGUCUGGGCCAGGCAGGCAUCAAAAGGAAUAGUCUUGCGCUCAACCAGAAGGUCUGUAAUCAUUUUAAGGGUA [A68G A69G A94G A118G] | 0.97

Variant | self-cleavage
GUUAACGGUCAUAGGCCAUGGAAACUAGGAGCACCAUUUCGCUGCCAGUGAAGAAAUGAACAAAGAAGAUCUGGGCCGGGCAGGCACCAAAAGAAAUAGUCUUGCGCUCAACCAGAAAGUCUGUAAUCACUUUAAGGGUA [A68G A78G U87C U130C] | 0.22
GUUAACGGUCAUAGGCCAUGGAAACUAGGAGCACCAUUUCGCUGCCAGUGAAGAAAUGAACAAAGAAGAUCUGGGCCAGGCGGGCAUCAAAGGAAAUAGUCUUGCGCUCAACCAGAAAGUCUGUUAUCAUUUUAAGGGUA [A68G A82G A92G A125U] | 0.3
GUUAACGGUCAUAGGCCAUGGAAACUAGGAGCACCAUUUCGCUGCCAGUGAAGAAAUGAACAAAGAAGAUCUGGGCCAGGCGGGCAUCAAAAGAAAUAGUCUUGCGCUCAGCCAGGAAGUCUGUAAUCAUUUUAAGGGUA [A68G A82G A111G A116G] | 0.18
GUUAACGGUCAUAGGCCAUGGAAACUAGGAGCACCAUUUCGCUGCCAGUGAAGAAAUGAACAAAGAAGAUCUGGGCCAGGCGGGCAUCAAAAGAAAUAGUCUUGCGCUCAACCAGAAAGUCUGUAAUCAUUAUAAGGGUA [A68G A82G U132A] | 0.38
GUUAACGGUCAUAGGCCAUGGAAACUAGGAGCACCAUUUCGCUGCCAGUGAAGAAAUGAACAAAGAAGAUCUGGGCCAGGCAGGCGUCAAAAGAGGUAGUCUUGCGCUCAACCAGAAAGUCUGUAAUCAUUUUAAGGGUA [A68G A86G A95G A96G] | 0.95
GUUAACGGUCAUAGGCCAUGGAAACUAGGAGCACCAUUUCGCUGCCAGUGAAGAAAUGAACAAAGAAGAUCUGGGCCAGGCAGGCGUCAAAAGAAAUAGUCUUGCGCUCAACCAGAAAGUCUGUAGUCAUUUUAAGGGUA [A68G A86G A126G] | 0.84
GUUAACGGUCAUAGGCCAUGGAAACUAGGAGCACCAUUUCGCUGCCAGUGAAGAAAUGAACAAAGAAGAUCUGGGCCAGGCAGGCGACAAAAGAAAUAGUCUUGCGCUCAACCAGAAAGUCUGUAAUCAUUUUAAGGGUA [A68G A86G U87A] | 1.27
GUUAACGGUCAUAGGCCAUGGAAACUAGGAGCACCAUUUCGCUGCCAGUGAAGAAAUGAACAAAGAAGAUCUGGGCCAGGCAGGCAUCUAAAGAAAUAGUCUUGCGCUCAACCAGAAAGUCUGUAGUCAUUUUAAGGGUA [A68G A89U A126G] | 1.07
GUUAACGGUCAUAGGCCAUGGAAACUAGGAGCACCAUUUCGCUGCCAGUGAAGAAAUGAACAAAGAAGAUCUGGGCCAGGCAGGCAUCAGAAGAAAUAGUCUUGCGCUCACCCAGAAAGUCUGUAAUCAUUUUAAGGGUA [A68G A90G A111C] | 0
GUUAACGGUCAUAGGCCAUGGAAACUAGGAGCACCAUUUCGCUGCCAGUGAAGAAAUGAACAAAGAAGAUCUGGGCCAGGCAGGCAUCAGAAGAAAUAGUCUUGCGCUCAACCAGAAAGUCUGUAAUCAUUUUAAGGGCA [A68G A90G U139C] | 1.2
GUUAACGGUCAUAGGCCAUGGAAACUAGGAGCACCAUUUCGCUGCCAGUGAAGAAAUGAACAAAGAAGAUCUGGGCCAGGCAGGCAUCAAGAGAAAUAGUCCUGCGCUCAACCAGAAAGUCUGUAAUCAUUUUAAGGGUA [A68G A91G U102C] | 1.78
GUUAACGGUCAUAGGCCAUGGAAACUAGGAGCACCAUUUCGCUGCCAGUGAAGAAAUGAACAAAGAAGAUCUGGGCCAGGCAGGCAUCAAGAGAAAUAGUCUUGCGCUCAACCAGAAAGUCCGUAAUCAUUUUAAGGGUA [A68G A91G U122C] | 0.35
GUUAACGGUCAUAGGCCAUGGAAACUAGGAGCACCAUUUCGCUGCCAGUGAAGAAAUGAACAAAGAAGAUCUGGGCCAGGCAGGCAUCAAAGGAAAUAGUCUUGCGCUCAACCAGAGAGUCUGUAAUCAUUUUAAGGGUA [A68G A92G A117G] | 1.85
GUUAACGGUCAUAGGCCAUGGAAACUAGGAGCACCAUUUCGCUGCCAGUGAAGAAAUGAACAAAGAAGAUCUGGGCCAGGCAGGCAUCAAAGGAAAUAGUCUUGCGCUCAACCAGAAGGUCUGUAAUCAUUUUAAGGGUA [A68G A92G A118G] | 0.61
GUUAACGGUCAUAGGCCAUGGAAACUAGGAGCACCAUUUCGCUGCCAGUGAAGAAAUGAACAAAGAAGAUCUGGGCCAGGCAGGCAUCAAAGGAAAUAGUCCUGCGCUCAACCAGAAAGUCUGUAAUCAUUUUAAGGGUA [A68G A92G U102C] | 1.45
GUUAACGGUCAUAGGCCAUGGAAACUAGGAGCACCAUUUCGCUGCCAGUGAAGAAAUGAACAAAGAAGAUCUGGGCCAGGCAGGCAUCAAAAGCAAUAGUCUUGCGCUCAACCCGAAAGUCUGUAAUCAUUUUAAGGGUA [A68G A94C A114C] | 0
GUUAACGGUCAUAGGCCAUGGAAACUAGGAGCACCAUUUCGCUGCCAGUGAAGAAAUGAACAAAGAAGAUCUGGGCCAGGCAGGCAUCAAAAGGAAUAGUCUUGCGCUCAACCAGAAAGACUGUAAUCAUUUUAAGGGUA [A68G A94G U120A] | 1.65
GUUAACGGUCAUAGGCCAUGGAAACUAGGAGCACCAUUUCGCUGCCAGUGAAGAAAUGAACAAAGAAGAUCUGGGCCAGGCAGGCAUCAAAAGGAAUAGUCUUGCGCUCAACCAGAAAGUCUGUAAACAUCUUAAGGGUA [A68G A94G U127A U131C] | 1.09
GUUAACGGUCAUAGGCCAUGGAAACUAGGAGCACCAUUUCGCUGCCAGUGAAGAAAUGAACAAAGAAGAUCUGGGCCAGGCAGGCAUCAAAAGAGAUAGUCUUACGCUCAACCAGAAAGUCUGUAAUCAUUCUAAGGGUA [A68G A95G G104A U132C] | 0.04
GUUAACGGUCAUAGGCCAUGGAAACUAGGAGCACCAUUUCGCUGCCAGUGAAGAAAUGAACAAAGAAGAUCUGGGCCAGGCAGGCAUCAAAAGAGAUAGUCUCGCGCUCAACCAGAAAGUCUGUAAUCAUUUUAAGGGUA [A68G A95G U103C] | 0.85
